Experimental data reported in PubChem BioAssay (NCI).
Where “and” joins values, the source holds several entries; their conditions need not be identical. Identical values can stand only once.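 Cells were grown in 96-well plates and exposed to each compound for 48 hours at five concentrations; endpoints were interpolated linearly between bracketing concentrations, or set to the highest concentration if not reached. Abbreviation: GI50, concentration required for 50% inhibition of growth. At the TGI there is no net growth.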 Peptide text beside a SMILES is read from it.

tested on: NCI-H322M lung; test: DTP human tumour cell line panel, 48 h

Row | SMILES | TGI | GI50
1 | [N-]=[N+]=Nc1cccc(-c2n[nH]c(Cl)cc2=O)c1 | > 100 µM | 
2 | CCOc1ccc(C2Oc3c(cccc3OC)C=C2[N+](=O)[O-])cc1OCC (configuration not stated) | 31.3 µM | 
3 | CCCCCCCCCCCCC(CC)CCCCC(=O)O (configuration not stated) | > 100 µM | 
4 | S=C1Nc2cnc3ccccc3c2SC1c1ccccc1 (configuration not stated) | > 100 µM | 
5 | COc1ccc2nc3c(n2c1)C(=O)C(=O)c1ccccc1-3 | 3.15 µM | 1.72 µM
6 | NC(=O)/C(=N\NC(=O)c1cc2ccccc2cc1O)C1C(=O)N(c2ccccc2)N=C1N (configuration not stated) | > 100 µM | 
7 | CC(C)NC1(C(N)=O)CCN(Cc2ccccc2)CC1 | > 100 µM | 
8 | Cc1cc(O)c(C=NC(=S)c2ccncc2)c(=O)o1 | > 100 µM | 
9 | O=C(Nc1ccccc1SC(/C=C/NNC1=NC(c2ccccc2)C(c2ccccc2)=NN1)c1ccccc1)c1ccc(Cl)cc1Cl (configuration not stated) | > 100 µM | 
10 | Oc1ccc2c(c1)OCC1(O)Cc3cc(O)c(O)cc3C21 (configuration not stated) | > 55.8 µM | 
11 | CCSC1=CC(Cc2ccc(OC)cc2)N(C(=O)OC)C1 (configuration not stated) | > 100 µM | 
12 | COC(=O)C1(CCC(=O)N(C)c2ccccc2)NNC2C(=O)N(c3ccccc3)C(=O)C21 (configuration not stated) | > 10 µM | 
13 | CN(C)c1nc2n(CCO)ccnc-2c(=O)n1 | > 100 µM | 
14 | O=C1C=CC2(NN=C(c3ccccc3)N2c2ccccc2)c2cccc(O)c21 (configuration not stated) | 14.6 µM | 3.96 µM
15 | CN1CCN(Cc2nc3cccc4c3c([n+]2[O-])-c2ccccc2-4)CC1 | > 100 µM | 
16 | COc1ccc(-c2onc(-c3ccc([N+](=O)[O-])cc3)c2C2=NCCCN2)cc1 | > 100 µM | 
17 | O=C(O)C(CO)N=Cc1nc(-c2ccccc2)oc1O (configuration not stated) | > 100 µM | 
18 | COc1cc2nccc(Oc3ccc(NC(=O)C4(C(=O)Nc5ccc(F)cc5)CC4)cc3)c2cc1OC(=O)c1ccc(N)cc1 | > 100 µM | 4.56 µM
19 | O=C1c2ccccc2S(=O)(=O)N1CSC(=S)N1CCOCC1 | > 100 µM | > 100 µM
20 | CCOC(=O)C1C(c2ccc3c(c2)OCO3)c2c([nH][nH]c2=O)CC1(O)OCC (configuration not stated) | > 100 µM | 
21 | CCOc1ccccc1C(=O)/C=C/c1cc2ccccc2[nH]c1=O | 2.4 µM | 0.149 µM
22 | CN1CCC(CN2c3ccccc3Sc3ccccc32)C1 (configuration not stated) | 30.9 µM | 
23 | O=S(=O)(Nc1nccs1)c1ccc(Nc2nc(-c3cccs3)nc3ccc(I)cc23)cc1 | 39.6 µM | 
24 | O=C(Cc1cc(=O)oc2cc(O)ccc12)N/N=C/c1ccc(N(CCCl)CCCl)cc1 | 36.1 µM | 
25 | CC1(c2ccc(Cl)cc2)NC(=NCCO)c2ccccc21 (configuration not stated) | > 100 µM | 

Row | SMILES | TGI | GI50
26 | COC(=O)Nc1nc2ccc(NS(=O)(=O)c3ccc(Cl)cc3)cc2[nH]1 | 37.9 µM | 
27 | CC(C)C(NCc1c2ccccc2[n+]([O-])c2ccccc12)C(=O)O (configuration not stated) | > 100 µM | 
28 | Cc1ccccc1Cn1nc2ccccc2cc1=O | > 100 µM | 
29 | COc1cc(Br)c(CC2C3=C(CCN2C(=O)C2CCC2)CC2(CC3)OCCO2)cc1O (configuration not stated) | > 100 µM | 
30 | CC1C2CC(CC23OCC(CCl)O3)C1(C)C (configuration not stated) | > 100 µM | 
31 | CNC(=O)c1ccc(C(=O)NCCCCCN(O)C(=O)CCC(=O)NCCCCCN(O)C(=O)CCC(=O)NCCCCCN(O)C(C)=O)c(O)c1O | > 100 µM | 
32 | CC(CO)CCNc1ncnc2c1ncn2CCC(=O)O (configuration not stated) | > 100 µM | 
33 | CN1C(=O)N(C)C2(O)c3ccccc3C(=O)C12O (configuration not stated) | > 100 µM | 
34 | COc1cc(-c2cc(-c3nc4ccc(F)cc4[nH]3)[nH]n2)cc(OC)c1OC | 11.3 µM | 2.58 µM
35 | Cc1cc(S(=O)(=O)N/C(=C(\C#N)C(=O)c2ccccc2)[n+]2ccc(N(C)C)cc2)c([S-])cc1Cl | > 100 µM | 
36 | CC1CC(c2ccccc2)Nc2nc3ccccc3n21 (configuration not stated) | > 100 µM | 
37 | CC1(CO)OC(n2cnc3c(N)ncnc32)C(O)C1O (configuration not stated) | > 100 µM | 
38 | O=C(Nc1cc(Cl)c(Cl)cc1Cl)C(=O)C(C(=O)c1ccccc1)C1OC(=O)c2ccccc21 (configuration not stated) | > 100 µM | 
39 | CCCCS/C(=C(/C#N)C(N)=O)c1cc2c([nH]1)CCCC2 | 27.7 µM | 
40 | COCCOc1nc(-c2ccccc2)nc2ccccc12 | > 100 µM | 
41 | COc1ccc2c(c1)C(=O)C1(C2)[C@H](c2ccccc2)C2C(=O)c3cc(OC)ccc3C2[C@H]1c1ccccc1 (some centres not stated) | > 100 µM | 
42 | O=C(Nc1ccccc1C(=O)N/N=C(\c1ccccc1)c1ccccn1)c1ccccc1 | > 100 µM | 0.469 µM
43 | c1ccc2c(c1)N[C@@H]1c3[nH]c4ccccc4c3CC[C@H]21 | 31.8 µM | 
44 | CN(C)CCNC(=O)C1COc2cc(-c3cc(=O)c4ccccc4o3)ccc2O1 (configuration not stated) | 64.4 µM | 
45 | CCC(C)C1NC(=O)C(CCCCN)NC(=O)C(CCCCN)NC(=O)C(CC(C)C)NC(=O)C(CCCCN)NC(=O)C(C(C)CC)NC(=O)C(C(C)C)NC(=O)C(C(C)CC)NC(=O)C(CCCCN)NC(=O)C(CCCCN)NC(=O)C(C)NC(=O)C(CCCCN)NC(=O)C(CC(C)C)NC1=O (configuration not stated) (cyclo(AKKIVIKLKKILK); configuration not given here) | 11.1 µM | 2.8 µM
46 | CCCCCCC1=NOC(C(c2cc[nH]c2)N(C)[C@H](C(=O)OC)C(C)C)C1 (some centres not stated) | > 100 µM | 
47 | C#CC(F)(F)[C@]1(O)CC[C@H]2[C@@H]3CCC4=CC(=O)CCC4=C3[C@@H](c3ccc(C4CC4)cc3)C[C@@]21C | > 100 µM | 6.08 µM and 4.26 µM
48 | CC[N-]c1nnnn1CC.[Au+].c1ccc([PH+](c2ccccc2)c2ccccc2)cc1 | 9.66 µM | 4.58 µM
49 | O=C(O)CCC1(C(=O)O)CCC(=O)c2ccccc21 (configuration not stated) | > 100 µM | 
50 | COc1ccc(CCc2nc3cc(-c4c(C)noc4C)ccc3n2CCN2CCOCC2)cc1 | > 100 µM | 27 µM

Row | SMILES | TGI | GI50
51 | CC(C)NCCCNc1c2ccccc2nc2cccc([N+](=O)[O-])c12 |  | 0.0146 µM
52 | COc1ccc2c(c1OC)OC[C@@H](C1=CC(=O)C=C(O)C1=O)C2 | 32 µM | 
53 | O=C1NC(=NCc2c(Cl)cccc2Cl)S/C1=C\c1ccc2ncccc2c1 | > 25 µM | 5.29 µM
54 | N#CC(C(=O)C(N)=O)c1ccccc1Cl (configuration not stated) | > 100 µM | 
55 | Cn1cc(C2=C(n3ccc4ccccc43)C(=O)NC2=O)c2ccccc21 | > 25 µM | > 25 µM
56 | O=S(=O)(Nc1ccc2ccccc2c1)N1CCCCC1 | 47.2 µM | 16.2 µM
57 | COC(=O)c1ccc(C2SC(C)C(=O)N2NC(=O)C(O)c2ccccc2)cc1 (configuration not stated) | > 100 µM | > 100 µM
58 | CCC1c2[nH]c3ccccc3c2C[C@H]2C(=O)NC(Cc3c[nH]c4ccccc34)C(=O)N12 (some centres not stated) | > 100 µM | 
59 | CCCCCCCC/C(=C\C1=C(C)C(=O)C(OC)=C(OC)C1=O)C(=O)O | > 100 µM | > 100 µM
60 | CN(C)[C@@H]1C(=O)C(C(=O)NCN2CCN(C(=N)N=C(N)N)CC2)=C(O)[C@@]2(O)C(=O)C3=C(O)c4c(O)cccc4[C@@](C)(O)[C@H]3C[C@@H]12 | 11.9 µM | 
61 | CC(=O)OCc1cc(=O)n2c([nH]c3ccccc32)c1C#N | > 100 µM | 
62 | CCCCCCC(O)(c1ccc(F)cc1)C(CN1CCOCC1)c1ccccc1 (configuration not stated) | 44.4 µM | 19.8 µM
63 | CCOC(=O)CC1C(O)C(=O)N(C)C1c1ccccc1 (configuration not stated) | > 100 µM | 
64 | O=S(=O)(Nc1cc(F)cc(F)c1)c1ccc(-c2cnc(C3CC3)o2)cc1 | > 100 µM | 6.14 µM
65 | N#CC(NCCc1ccccc1)c1ccc(C(C#N)NCCc2ccccc2)cc1 (configuration not stated) | > 100 µM | 
66 | CC1(O)C(C)(O)C(C)(O)C1(C)O (configuration not stated) | > 100 µM | 
67 | O=c1oc2c([N+](=O)[O-])cc([N+](=O)[O-])cc2c2ccccc12 | > 100 µM | 
68 | C/C(=N\Nc1nc2ccccc2o1)c1ccc2ccccc2n1 | > 100 µM | 
69 | COc1ccc(C2=Cc3nc2c(-c2ccccc2)c2ccc([nH]2)c(-c2ccccc2)c2nc(c(-c4ccccc4)c4ccc([nH]4)c3-c3ccccc3)C=C2)cc1 | > 100 µM | 
70 | COc1ccc(CNc2cnc3ccc(N)cc3n2)cc1OC | > 100 µM | 
71 | CCCCNC(=O)OCCN=C1c2ccccc2C(Br)C(Br)c2ccccc21 (configuration not stated) | > 100 µM | 
72 | COC(=O)C(/C(=N/NC(N)=O)C(=O)Nc1c(C)cccc1C(C)(C)C)c1nc2ccc(Cl)cc2[nH]c1=O (configuration not stated) | > 100 µM | 
73 | O=C(CCC1CCCCC1)NCc1ccc(C(=O)O)cc1 | > 100 µM | 
74 | COc1ccc(N)c(C(=O)CCNC(C)=O)c1 | > 100 µM | 
75 | N#CNC(=NCc1ccccc1)NCc1ccccc1 | > 100 µM | 

Row | SMILES | TGI | GI50
76 | CC(C)C(=O)NCC[C@@H](CNC(=O)OC(C)(C)C)NC(=O)OC(C)(C)C | > 100 µM | 
77 | CCOC(=O)c1ccc(O)cc1 | > 100 µM | 
78 | CCN(CC)CCn1ncc2c(N)ncnc21 | > 100 µM | 
79 | COC(=O)[C@@H]1c2[nH]c3ccccc3c2C[C@@H]2c3ccccc3NC(=O)[C@@H]21 | > 100 µM | 
80 | CCCCCCCCCCCCCCCC(=O)Nc1ccn(C2CC(OP(=O)(O)OCC3OC(n4cc(F)c(=O)[nH]c4=O)CC3OC(C)=O)C(CO)O2)c(=O)n1 (configuration not stated) | > 100 µM | 
81 | COc1ccc(-c2csc(=[N+]3CCCCC3)s2)cc1 | 48.6 µM | 
82 | CC1(C)OCC(C2OC(OC(=O)c3ccc(C(F)(F)F)cc3)C3OC(C)(C)OC23)O1 (configuration not stated) | > 77.5 µM | 
83 | Cc1ccc(S(=O)(=O)C2=C([Si](C)(C)C)C3CC2[C@@H]2C4C=CC(CC4)[C@H]32)cc1 (some centres not stated) | > 100 µM | 
84 | NC(N)=N/N=C(\c1ccc(F)cc1)c1ccc(C(F)(F)F)cc1 | 7.61 µM | 
85 | O=c1cc(/C=C/c2ccc(O)c(O)c2)cc(/C=C/c2ccc(O)c(O)c2)o1 | 23.1 µM and 23.5 µM | 
86 | COc1ccc(NC(=S)N/N=C(\c2ccccc2)c2ccccn2)cc1 | 19.5 µM | 
87 | CN(C)N=Nc1cn[nH]c1C(N)=O | > 100 µM | 
88 | COc1ccc(C(O)c2cc3c(N)c(C(=O)Nc4ccccc4)sc3nc2C)cc1 (configuration not stated) | 47.4 µM | 0.0555 µM
89 | [N-]=[N+]=Nc1ncnc2c1sc(=S)n2-c1ccccc1 | > 100 µM | 
90 | NC(N)=NCCN1CCCCCc2ccccc21 | > 10 µM | 
91 | COc1ccc2c(c1OC)C(=O)OC2C1c2c(c(N)c3c(c2OC)OCO3)CCN1C (configuration not stated) | > 100 µM | 6.93 µM
92 | CCC(=O)NC(Nc1ccccc1F)(C(F)(F)F)C(F)(F)F | > 100 µM | 
93 | O=C1/C(=C/c2ccc(Cl)cc2)N=C(c2ccccc2)N1c1nc2ccc(Sc3ccccc3)cc2[nH]1 | > 100 µM | 
94 | CCOC(=O)c1cc(C(=O)c2cc(OC)c(OC)c(OC)c2)n2nc(C)ccc12 | > 100 µM | 0.648 µM
95 | CCOC(=O)c1cc2c([nH]1)c(OC(C)=O)cc1c2ccn1Cc1ccccc1 | > 100 µM | 
96 | COC(=O)C(=O)C(CC(=O)Nc1c(C)cccc1C)C(=O)OC (configuration not stated) | > 100 µM | 
97 | Cc1ncc([N+](=O)[O-])n1CCNC(=O)CCC(=O)NCCCn1ccnc1[N+](=O)[O-] | > 100 µM | 
98 | CN/N=C(/C=C/c1ccccc1)C(C)C | > 100 µM | 
99 | CCOC(=O)c1cc(C)n(CN(CCO)Cn2nc(C(=O)OCC)cc2C)n1 | > 100 µM | 
100 | O=C([CH-]C(=O)C(F)(F)F)c1ccccc1.O=C([CH-]C(=O)C(F)(F)F)c1ccccc1.[O]=[U+2]=[O] | 97.1 µM | 17.1 µM
